According to the supplement of paper PMC10369915:
Some of the results follow. No stated cut-off is given here; in the data, active = 3.2 or more and inactive = the rest. Only a few entries rise above the background.

How the values were obtained:
Assay in all cases: enrichment score (SH2-bound / input frequency) (ratio); bacterial display of known human phosphotyrosine sites (pTyr-Var adds point mutants) read by sequencing; higher = stronger binding; tyrosines were phosphorylated by kinases first
Conditions in all cases: peptide library: pTyr-Var
SHP2 C-SH2 domain E139D = target: SHP2 C-SH2 domain E139D
[1] = target: SHP2 C-SH2 domain wild-type
SHP2 N-SH2 domain L43F = target: SHP2 N-SH2 domain L43F
SHP2 N-SH2 domain T42A = target: SHP2 N-SH2 domain T42A
SHP2 N-SH2 domain T52S = target: SHP2 N-SH2 domain T52S
[2] = target: SHP2 N-SH2 domain wild-type

Measured: enrichment score
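Further: displayed peptides selected on beads carrying the immobilized SH2 domain, with library peptides lacking any tyrosine serving as negative controls.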

LPHVIYCRLWR [SMAD2_Y128]
inactive: SHP2 C-SH2 domain E139D 0.482 | [1] 0.35 | SHP2 N-SH2 domain L43F 0.359 | SHP2 N-SH2 domain T42A 0.401 | SHP2 N-SH2 domain T52S 0.317 | [2] 0.403

VIEQRYNETWL [SLC2A4_Y56_S55R]
inactive: SHP2 C-SH2 domain E139D 1 | [1] 0.795 | SHP2 N-SH2 domain L43F 0.855 | SHP2 N-SH2 domain T42A 0.73 | SHP2 N-SH2 domain T52S 0.991 | [2] 0.997

KPLMPYMRFSR [SMARCE1_Y73_YF]
inactive: SHP2 C-SH2 domain E139D 0.246 | [1] 0.222 | SHP2 N-SH2 domain L43F 0.241 | SHP2 N-SH2 domain T42A 0.194 | SHP2 N-SH2 domain T52S 0.305 | [2] 0.179

ILLAGYLVMVI [SLC28A3_Y113]
inactive: SHP2 C-SH2 domain E139D 2.48 | [1] 2.34 | SHP2 N-SH2 domain L43F 2.15 | SHP2 N-SH2 domain T42A 1.94 | SHP2 N-SH2 domain T52S 2.12 | [2] 2.36

TDKLFYIFTSG [SLC27A4_Y243_YF]
inactive: SHP2 C-SH2 domain E139D 1.31 | [1] 1.03 | SHP2 N-SH2 domain L43F 1.11 | SHP2 N-SH2 domain T42A 1.12 | SHP2 N-SH2 domain T52S 1.19 | [2] 1.05

TDKLFYIYTPG [SLC27A4_Y243_S247P]
inactive: SHP2 C-SH2 domain E139D 0.676 | [1] 0.843 | SHP2 N-SH2 domain L43F 0.601 | SHP2 N-SH2 domain T42A 0.643 | SHP2 N-SH2 domain T52S 0.597 | [2] 0.878

FSCLPCGRLAF [SLC52A2_Y305_Y305C_YF]
active: SHP2 C-SH2 domain E139D 3.51 | [1] 3.33 | SHP2 N-SH2 domain L43F 4.13 | SHP2 N-SH2 domain T52S 3.32
inactive: SHP2 N-SH2 domain T42A 2.89 | [2] 2.65

PLQKIYNYNVL [SLC4A1_Y553_T552I]
inactive: SHP2 C-SH2 domain E139D 1.35 | [1] 0.975 | SHP2 N-SH2 domain L43F 1.33 | SHP2 N-SH2 domain T42A 1.39 | SHP2 N-SH2 domain T52S 1.17 | [2] 1.16

PLQKTYNFNML [SLC4A1_Y553_V557M_YF]
inactive: SHP2 C-SH2 domain E139D 0.959 | [1] 1.33 | SHP2 N-SH2 domain L43F 1.54 | SHP2 N-SH2 domain T42A 1.23 | SHP2 N-SH2 domain T52S 1.13 | [2] 1.53

PLQKIYNFNVL [SLC4A1_Y553_T552I_YF]
active: SHP2 N-SH2 domain T52S 3.23
inactive: SHP2 C-SH2 domain E139D 2.57 | [1] 2.27 | SHP2 N-SH2 domain L43F 2.33 | SHP2 N-SH2 domain T42A 1.83 | [2] 1.79

KPLMPSMRFSR [SMARCE1_Y73_Y73S_YF]
inactive: SHP2 C-SH2 domain E139D 0.366 | [1] 0.207 | SHP2 N-SH2 domain L43F 0.328 | SHP2 N-SH2 domain T42A 0.332 | SHP2 N-SH2 domain T52S 0.352 | [2] 0.352

THEVRYVSAGQ [SLCO4A1_Y77]
inactive: SHP2 C-SH2 domain E139D 0.685 | [1] 0.653 | SHP2 N-SH2 domain L43F 0.522 | SHP2 N-SH2 domain T42A 0.522 | SHP2 N-SH2 domain T52S 0.57 | [2] 0.764

ANVIRYFPTQA [SLC25A4_Y81]
inactive: SHP2 C-SH2 domain E139D 0.895 | [1] 0.882 | SHP2 N-SH2 domain L43F 0.913 | SHP2 N-SH2 domain T42A 0.66 | SHP2 N-SH2 domain T52S 0.756 | [2] 0.952

KLFYIYTSGTT [SLC27A4_Y245]
inactive: SHP2 C-SH2 domain E139D 1.2 | [1] 1.14 | SHP2 N-SH2 domain L43F 1.13 | SHP2 N-SH2 domain T42A 1.37 | SHP2 N-SH2 domain T52S 1.03 | [2] 1.45

LLQKTYNYNVL [SLC4A1_Y553_P548L]
inactive: SHP2 C-SH2 domain E139D 1.14 | [1] 0.851 | SHP2 N-SH2 domain L43F 1.19 | SHP2 N-SH2 domain T42A 0.962 | SHP2 N-SH2 domain T52S 1 | [2] 1.16

NNKKDYYDMYE [SLC26A3_Y526_K521N]
inactive: SHP2 C-SH2 domain E139D 0.846 | [1] 0.617 | SHP2 N-SH2 domain L43F 0.6 | SHP2 N-SH2 domain T42A 0.515 | SHP2 N-SH2 domain T52S 0.449 | [2] 0.86

SAPDSYIGIGN [SLC38A4_Y27]
inactive: SHP2 C-SH2 domain E139D 0.653 | [1] 0.594 | SHP2 N-SH2 domain L43F 0.694 | SHP2 N-SH2 domain T42A 0.558 | SHP2 N-SH2 domain T52S 0.65 | [2] 0.572

PLQKTYNFNVL [SLC4A1_Y553_YF]
inactive: SHP2 C-SH2 domain E139D 1.44 | [1] 1.03 | SHP2 N-SH2 domain L43F 1.2 | SHP2 N-SH2 domain T42A 1.3 | SHP2 N-SH2 domain T52S 1.15 | [2] 1.09

QKINNYLTVPA [SLC9A1_Y683]
inactive: SHP2 C-SH2 domain E139D 0.607 | [1] 0.566 | SHP2 N-SH2 domain L43F 0.902 | SHP2 N-SH2 domain T42A 0.864 | SHP2 N-SH2 domain T52S 0.947 | [2] 1.4

FPPTHYIRRMP [SLC4A11_Y820_V824M_YF]
inactive: SHP2 C-SH2 domain E139D 0.405 | [1] 0.216 | SHP2 N-SH2 domain L43F 0.314 | SHP2 N-SH2 domain T42A 0.303 | SHP2 N-SH2 domain T52S 0.27 | [2] 0.386

FSCLPYGRLAF [SLC52A2_Y305_YF]
inactive: SHP2 C-SH2 domain E139D 1.07 | [1] 0.801 | SHP2 N-SH2 domain L43F 1.5 | SHP2 N-SH2 domain T42A 1.29 | SHP2 N-SH2 domain T52S 0.921 | [2] 0.813

LLQKTYNFNVL [SLC4A1_Y553_P548L_YF]
inactive: SHP2 C-SH2 domain E139D 1.36 | [1] 1.2 | SHP2 N-SH2 domain L43F 1.34 | SHP2 N-SH2 domain T42A 1.21 | SHP2 N-SH2 domain T52S 1.54 | [2] 1.13

FSCLPCGRLAY [SLC52A2_Y305_Y305C]
inactive: [1] 2.72 | SHP2 N-SH2 domain L43F 3.05 | SHP2 N-SH2 domain T42A 2.87 | SHP2 N-SH2 domain T52S 2.86 | [2] 2.38
active: SHP2 C-SH2 domain E139D 3.24

KLFYIYTPGTT [SLC27A4_Y245_S247P]
inactive: SHP2 C-SH2 domain E139D 0.694 | [1] 0.679 | SHP2 N-SH2 domain L43F 0.654 | SHP2 N-SH2 domain T42A 0.765 | SHP2 N-SH2 domain T52S 0.74 | [2] 0.725

KELSNYKHLTL [SLIT2_Y776]
inactive: SHP2 C-SH2 domain E139D 0.498 | [1] 0.602 | SHP2 N-SH2 domain L43F 0.545 | SHP2 N-SH2 domain T42A 0.621 | SHP2 N-SH2 domain T52S 0.609 | [2] 0.627

TDKLFYIYTSG [SLC27A4_Y243]
inactive: SHP2 C-SH2 domain E139D 1.02 | [1] 1.24 | SHP2 N-SH2 domain L43F 1.11 | SHP2 N-SH2 domain T42A 0.943 | SHP2 N-SH2 domain T52S 0.849 | [2] 1.05

GRTNIYKNKKD [SLC26A3_Y520]
inactive: SHP2 C-SH2 domain E139D 0.536 | [1] 0.55 | SHP2 N-SH2 domain L43F 0.471 | SHP2 N-SH2 domain T42A 0.493 | SHP2 N-SH2 domain T52S 0.588 | [2] 0.525

ANVIHYFPTQA [SLC25A4_Y81_R80H]
inactive: SHP2 C-SH2 domain E139D 0.872 | [1] 1.09 | SHP2 N-SH2 domain L43F 1.08 | SHP2 N-SH2 domain T42A 1.01 | SHP2 N-SH2 domain T52S 0.991 | [2] 0.923

PKEEPYQMQEK [SLC5A3_Y565]
inactive: SHP2 C-SH2 domain E139D 0.536 | [1] 0.683 | SHP2 N-SH2 domain L43F 0.926 | SHP2 N-SH2 domain T42A 0.914 | SHP2 N-SH2 domain T52S 0.824 | [2] 1.59

MSSLPYMKMIF [SLC4A11_Y853]
active: SHP2 N-SH2 domain L43F 5.17 | SHP2 N-SH2 domain T42A 9.47 | SHP2 N-SH2 domain T52S 6.44
inactive: SHP2 C-SH2 domain E139D 2.08 | [1] 2.05 | [2] 2

IFKAAYFGVFD [SLC25A4_Y191_R188K_YF]
inactive: SHP2 C-SH2 domain E139D 1.3 | [1] 1.31 | SHP2 N-SH2 domain L43F 1.38 | SHP2 N-SH2 domain T42A 1.04 | SHP2 N-SH2 domain T52S 1.29 | [2] 1.28

FSCLPYRRLAY [SLC52A2_Y305_G306R]
inactive: SHP2 C-SH2 domain E139D 0.227 | [1] 0.251 | SHP2 N-SH2 domain L43F 0.316 | SHP2 N-SH2 domain T42A 0.26 | SHP2 N-SH2 domain T52S 0.197 | [2] 0.279

GPSTPYTKSKC [SMARCC2_Y324_R329C]
inactive: SHP2 C-SH2 domain E139D 0.595 | [1] 0.673 | SHP2 N-SH2 domain L43F 0.693 | SHP2 N-SH2 domain T42A 0.612 | SHP2 N-SH2 domain T52S 0.558 | [2] 0.726

FPHVISARLWR [SMAD4_Y95_Y95S]
inactive: SHP2 C-SH2 domain E139D 0.354 | [1] 0.287 | SHP2 N-SH2 domain L43F 0.307 | SHP2 N-SH2 domain T42A 0.415 | SHP2 N-SH2 domain T52S 0.369 | [2] 0.361

KNKKDYFDMFE [SLC26A3_Y526_YF]
inactive: SHP2 C-SH2 domain E139D 0.974 | [1] 1.07 | SHP2 N-SH2 domain L43F 1.1 | SHP2 N-SH2 domain T42A 0.81 | SHP2 N-SH2 domain T52S 0.979 | [2] 0.753

GRTNIYNNKKD [SLC26A3_Y520_K521N]
inactive: SHP2 C-SH2 domain E139D 0.841 | [1] 0.88 | SHP2 N-SH2 domain L43F 0.879 | SHP2 N-SH2 domain T42A 0.762 | SHP2 N-SH2 domain T52S 0.877 | [2] 0.937

VIIVLYFSLWK [SLC6A2_Y249_V245I]
inactive: SHP2 C-SH2 domain E139D 1.03 | [1] 0.893 | SHP2 N-SH2 domain L43F 0.764 | SHP2 N-SH2 domain T42A 0.954 | SHP2 N-SH2 domain T52S 1.19 | [2] 0.605
